In the RNAGym collection of RNA variant scans (doi:10.1093/nar/gkz1192):
The source gives no read counts; variants with many changes may rest on few reads.

B1: CPEB3 Ribozyme (parent)
chain: UAACAGGGGGCCACAGCAGAAGCGUUCACGUCGCAGCCCCUGUCAGAUUCUGGUGAAUCUGCGAAUUCUGCUGUAUAUCUC

Variants of: B1
Assay: self-cleavage, relative activity (ratio to wild type); higher = more cleavage; in vitro, sequencing
Method in brief: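 Relative activity was defined as the cleaved/total read fraction for a variant divided by the same fraction for the unmutated ribozyme. CPEB3 self-cleaving ribozyme libraries were made by rounds of error-prone PCR, barcoded, and transcribed in vitro with T7 RNA polymerase for 5 hours at 37°C, and cleavage ran through transcription plus a 15 min DNase I step before EDTA. Illumina sequencing of template-switched reverse transcripts gave the reads, and DNA sequencing mapped the barcodes. Averages come from three batches, using variants with at least 5 reads.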
G22A A28C U49A showed a self-cleavage of 0.15. A21U U25G C29U G36U C40U U49C U54G showed a self-cleavage of 0.02. Variant C23G A47U U58A A65U has a self-cleavage of 0.08. Work on A21G U41A A47U yielded a self-cleavage of 0.22. Work on A21G U43C A75G yielded a self-cleavage of 0.15. C23U G46U U49C gave a self-cleavage of 0.2. In the case of G24C U60A G63A, the self-cleavage is reported as 0.11. Work on U25A C34A U41A yielded a self-cleavage of 0.38. Work on A21G U51A U58C U72A A75U yielded a self-cleavage of 0.21. Variant C23U U26C U41C U48C has a self-cleavage of 0.1. U25A A64U U74A gave a self-cleavage of 0.2. Work on U25A A47U U78A yielded a self-cleavage of 0.19. For C23U A35G A47U, the self-cleavage was 0.49. A21G U51A U80C gave a self-cleavage of 0.85. C23U U26C G33C G53U U54C gave a self-cleavage of 0.1. U25A A35U U67A showed a self-cleavage of 0.12. Variant G22U G53U G63A has a self-cleavage of 0.29. Variant A21G U67C U78A has a self-cleavage of 0.13. A21G U41A G53U U60A U67C U80C showed a self-cleavage of 0.11. Variant G22A U41A U78C has a self-cleavage of 0.12. For G22C C29U U60C C62A, the self-cleavage was 0.06. With C23U U31A U51A A57U U58C the self-cleavage was 0.07. With C23A C37U U43C A57G U66C the self-cleavage was 0.08. For G22A U25C U41C A45G, the self-cleavage was 0.09. For C23A U41C U51A U72C, the self-cleavage was 0.14. Work on G22A U26A U49A U51A A56U yielded a self-cleavage of 0.07. A21U G22A G42A U43C A65U gave a self-cleavage of 0.11. A21U A28U U48G A75U showed a self-cleavage of 0.08. Work on A21U U25A U26A U51A yielded a self-cleavage of 0.23. In the case of U25A A35G A77U U80A, the self-cleavage is reported as 0.28. For A21G U31C A64U, the self-cleavage was 0.08. For G22A A28G U41G U51A, the self-cleavage was 0.07. In the case of G22U U26C C40U U54C U69C U80A, the self-cleavage is reported as 0.15. In the case of C23U A45U A77U, the self-cleavage is reported as 0.39. A21U C29U U74C gave a self-cleavage of 0.41. Variant G24A U25A A64G C68A U72C has a self-cleavage of 0.11. With U25A A64G A65G the self-cleavage was 0.21. Work on A21G U31C U51A A64U yielded a self-cleavage of 0.14. G22A U31C G36C G53A U58C gave a self-cleavage of 0.14. In the case of A21G U60C U76G, the self-cleavage is reported as 0.32. With G22A U25C A28U U41C A47G U54G the self-cleavage was 0.15. For A21U A28G A45C G52C U69A, the self-cleavage was 0.13. Work on C23G C44U A57G U78A yielded a self-cleavage of 0.23. Variant C23U U60A A64G U69C A75G has a self-cleavage of 0.05. G24A U31C U51C A56U showed a self-cleavage of 0.09. G24A C39A U41C G46A A56G gave a self-cleavage of 0.1. With A21U G53A U72A C81U the self-cleavage was 0.19. With C23U U26A U66C U72A U80C the self-cleavage was 0.14. In the case of C23U C32A A45G, the self-cleavage is reported as 0.17. For A21U C44U A56G U76C, the self-cleavage was 0.06. Variant A21G U51C U54A U58A has a self-cleavage of 0.2. In the case of G24A A56G U76A, the self-cleavage is reported as 0.47. Work on C23G U48C U66C U78A yielded a self-cleavage of 0.2. For A21G U43A U58C U69A, the self-cleavage was 0.21. G24C U26C A64G U72A C79U showed a self-cleavage of 0.15. Work on G24U C27G U72C yielded a self-cleavage of 0.09. With A21U U60C U72C A77U the self-cleavage was 0.18. For A21G U43A A45G A47G U51C, the self-cleavage was 0.45. Work on A21G U54A C59U yielded a self-cleavage of 0.15. Work on C23G U31C A35U A64G U72C yielded a self-cleavage of 0.05. A21U A35U U41C U43A gave a self-cleavage of 0.09. A21G U49C U60C A77U gave a self-cleavage of 0.24. U25A A47G A75U gave a self-cleavage of 0.3. Variant C23A U25C U78C has a self-cleavage of 0.23. A21U U25C U60C U69A gave a self-cleavage of 0.07. In the case of C23A A28G A35U C59A C62G U78G, the self-cleavage is reported as 0.09. G24C A28U G42A A47U A64U gave a self-cleavage of 0.13. Work on G24C U43A U72A A75G yielded a self-cleavage of 0.21. For G24C U26C U60A U80A, the self-cleavage was 0.11. In the case of A21G U54C A64U, the self-cleavage is reported as 0.11. C23U A64U U69A A75G gave a self-cleavage of 0.13. For A21G U31C U41A A57G, the self-cleavage was 0.15. Work on A21U A28G U60C U78A yielded a self-cleavage of 0.19. For A21G U69C U72C, the self-cleavage was 0.26. In the case of G22A U26C A28U U60C U72G, the self-cleavage is reported as 0.06. With A21G U41C U49A U60C the self-cleavage was 0.15. In the case of G24A C44A A45G, the self-cleavage is reported as 0.16. Work on A21G U60C U69C yielded a self-cleavage of 0.25. For A21U U26C A45G U49C, the self-cleavage was 0.2. C23G A45G U72C gave a self-cleavage of 0.09. Variant U25A A28G A45U U74C U80C has a self-cleavage of 0.1. With C23U U51C U69C G70U C79U the self-cleavage was 0.26. A21U U41A U58A C59U C68A gave a self-cleavage of 0.07.
